Test results published in publication PMC4336329 (PLoS ONE, 2015).
Hit rate of the full screen: of about 310,000 compounds, about 14,000 (4.5%) showed an effect of 50% or more. The effect is printed as a negative number. Some of the results follow.

Biological target: human ether-à-go-go-related gene (hERG) potassium channel (human, UniProt Q12809)
Assay: primary screen, population patch clamp on CHO cells stably expressing hERG
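Further: peak tail current of the secondary pulse compared with the same well before compound.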

Sequence of human ether-à-go-go-related gene (hERG) potassium channel (Q12809 whole entry, looked up): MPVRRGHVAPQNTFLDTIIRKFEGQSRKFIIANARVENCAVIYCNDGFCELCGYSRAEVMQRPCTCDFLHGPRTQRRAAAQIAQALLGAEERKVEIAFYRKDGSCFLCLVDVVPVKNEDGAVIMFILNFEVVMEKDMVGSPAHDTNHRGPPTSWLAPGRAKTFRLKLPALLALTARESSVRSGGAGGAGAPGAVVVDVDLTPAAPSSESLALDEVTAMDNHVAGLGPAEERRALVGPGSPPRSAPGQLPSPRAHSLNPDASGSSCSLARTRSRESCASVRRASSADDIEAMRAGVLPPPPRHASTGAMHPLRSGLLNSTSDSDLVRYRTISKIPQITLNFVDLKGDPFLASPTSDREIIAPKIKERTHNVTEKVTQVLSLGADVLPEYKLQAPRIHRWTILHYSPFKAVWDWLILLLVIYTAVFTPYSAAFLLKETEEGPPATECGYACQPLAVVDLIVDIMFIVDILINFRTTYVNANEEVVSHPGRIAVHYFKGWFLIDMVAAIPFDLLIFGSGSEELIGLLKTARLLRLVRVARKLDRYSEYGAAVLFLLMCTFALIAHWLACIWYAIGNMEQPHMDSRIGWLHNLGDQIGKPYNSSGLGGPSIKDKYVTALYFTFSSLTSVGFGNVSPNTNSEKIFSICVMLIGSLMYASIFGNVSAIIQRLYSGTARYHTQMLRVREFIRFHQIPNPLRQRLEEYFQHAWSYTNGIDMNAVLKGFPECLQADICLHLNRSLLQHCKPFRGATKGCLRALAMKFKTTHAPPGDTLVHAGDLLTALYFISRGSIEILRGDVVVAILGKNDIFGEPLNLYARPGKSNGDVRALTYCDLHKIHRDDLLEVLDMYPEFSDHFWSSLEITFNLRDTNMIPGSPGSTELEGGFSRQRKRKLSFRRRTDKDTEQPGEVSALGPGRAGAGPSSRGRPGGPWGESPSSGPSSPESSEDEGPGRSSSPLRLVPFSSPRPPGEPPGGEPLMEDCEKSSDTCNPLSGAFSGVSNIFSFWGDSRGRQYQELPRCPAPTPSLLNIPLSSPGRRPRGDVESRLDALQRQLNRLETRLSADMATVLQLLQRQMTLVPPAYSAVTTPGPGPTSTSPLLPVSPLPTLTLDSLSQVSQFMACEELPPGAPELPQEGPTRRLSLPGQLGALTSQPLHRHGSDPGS

Point of comparison: `Cn1cccc1CC(=O)N/N=C/C(Cl)=C/c1ccccc1`, “hERG current change (%, negative = inhibition) at 10uM” value -6.25%. Against it:
- CCn1c(SCC(=O)NC2CC2)nnc1-c1ccccn1 — higher, 12.7%
- c1ccc(N2CCN(c3ncnc4scc(-c5cccs5)c34)CC2)cc1 — higher, 9.87%
- O=C(C1CC(=O)N(C2CCCC2)C1)N1CCN(c2ccccc2)CC1 (stereo not drawn) — higher, 2.34%
- O=C(O)c1ccc(N/N=C/c2cccc3cccnc23)cc1 — higher, 7.83%
- Cc1cc(NC(=O)C2CCCCC2)n(-c2nc3ccccc3[nH]2)n1 — higher, 17.4%
- COC(=O)c1ccc2nc(NC(=O)CCS(=O)(=O)c3ccccc3)sc2c1 — higher, -1.21%
- Cc1ccccc1Nc1nc(N)nc(COC(=O)[C@@H](NC(=O)c2c(F)cccc2F)C(C)C)n1 — lower, -13.3%
- COc1cccc(/C=N/NC(=O)c2nc(-c3ccccc3)cc(-c3ccccc3)n2)c1 — higher, -4.85%
- CCOc1cc(-c2noc(CCC(=O)Nc3cccnc3)n2)ccc1OC — higher, 10.4%
- CCOC(=O)c1ccc(NC(=O)CCC(CC)C(=O)O)cc1 (stereo not drawn) — higher, 3.24%
- COc1ccc(N2CCN(CCNC(=O)c3ccc(NC(=O)C4CCCO4)cc3)CC2)cc1 (stereo not drawn) — higher, 4.32%
- Cn1ncc(Br)c1NC(=O)c1ccco1 — higher, 24%
- Cc1c(C(=O)NCc2ccccc2CN2CCCC2)oc2ccc(F)cc12 — lower, -74%
- CC(C)n1nnnc1CN1CCN(C)CC1.Cl — higher, 8.81%
- CC1CCc2nc(NC(=O)CSc3nc4ccccc4o3)sc2C1 (stereo not drawn) — higher, -0.0769%
- Nc1nnc(CSCc2ccc(F)cc2)s1 — higher, -3.36%
- O=C1Nc2cc(C(=O)N3CCN(c4ccccc4F)CC3)ccc2NC1CSCc1ccccc1F (stereo not drawn) — higher, 17%
- CCOC(=O)c1c(-n2c(C)cc(/C=C3\C(=O)NC(=O)N(C)C3=O)c2C)sc2c1CCCC2 — higher, 11.4%
- CCc1ccc(-c2cc(C)no2)cc1S(=O)(=O)Nc1ccc(C)cn1 — higher, 11.4%
- CCOC(=O)c1[nH]c(CN2CCN(c3ccc(OC)cc3)CC2)c(C(=O)OCC)c1C — lower, -14.3%
- O=C(Cn1c(=O)oc2cc(S(=O)(=O)N3CCCC3)ccc21)Nc1ccccc1Br — higher, 6.17%
- COc1ccc(/C=N/c2nc3ccccc3n2C)cc1OC — higher, -4.8%
- CCN(CC)CCNC(=O)CCc1c(C)nc2c(c(C)nn2-c2ccc(C)c(C)c2)c1C — lower, -62.3%
- NC(=O)c1c(NC(=O)c2ccc(S(=O)(=O)N(CCCl)CCCl)cc2)sc2c1CCCCC2 — higher, -4.07%
- CC(=O)c1sc(NC(=O)c2c(F)cccc2F)nc1-c1ccccc1 — lower, -30.7%
- O=C(CSc1nnnn1C1CCCC1)N1CCOCC1 — higher, 22%
- O=C(Nc1ccc(F)cc1)Nc1cccnc1Cl — higher, 8.49%
- O=C(COc1ccc(S(=O)(=O)N2CCCC2)cc1Cl)NC1CC1 — lower, -18.5%
- CN(CC(=O)Nc1ccc(F)c(F)c1F)C(=O)C1CCCO1 (stereo not drawn) — higher, 10%
- COC(=O)c1sccc1NC(=O)c1cccc(OC)c1 — higher, 18.3%
- Cc1ccc(NC(=O)NNc2cccc(Cl)n2)cc1 — lower, -12.4%
- Cn1nnnc1SCc1ccc(C(=O)Nc2nccs2)cc1 — higher, -6.13%
- Cc1cccc(C)c1NC(=O)CSC(=O)c1sc2ccccc2c1Cl — higher, 10.7%
- CN1CCN(c2ccc(NC(=O)COc3ccccc3[N+](=O)[O-])cc2)CC1 — lower, -10.5%
- CCOc1ccccc1-n1c(COc2ccccc2)nnc1SCC(N)=O — higher, -0.434%
- CCN(CC)S(=O)(=O)c1ccc(C(=O)NCCc2cc3c(OC)ccc(OC)c3[nH]c2=O)cc1 — lower, -48.6%
- CCOC(=O)C1=C(c2ccc(O)cc2)NC(=O)NC1C (stereo not drawn) — higher, 9.47%
- Cc1ccc(S(=O)(=O)N(Cc2ccc(Cl)cc2)c2ccccc2C(=O)O)cc1 — higher, 12.3%
- Nc1c(Cl)ncnc1N/N=C/c1ccnc2ccccc12 — higher, 1.91%
- CN(C)c1ccc(N=Cc2nc(-c3ccccc3)oc2O)cc1 — higher, -3.97%
- O=C(Nc1ccccc1NC(=O)c1ccc(F)cc1)c1ccc(F)cc1 — higher, 22.9%
- CSCCC(NC(=O)c1ccccc1Br)C(=O)N1CCCCCCC1 (stereo not drawn) — lower, -6.56%
- CC1CCN(S(=O)(=O)c2ccc(C(=O)OC(C)C(=O)N(C)C3CCCCC3)cc2)CC1 (stereo not drawn) — higher, 4.78%
- COc1ccc(SCCN2CC[C@@H](O)CCC2=O)cc1 — higher, 13.8%
